# Reference: PubChem BioAssay AID1240 (Sanford-Burnham Center for Chemical Genomics, 2008)
# Among all 50,000 compounds or so, about 800 (1.6%) showed an effect of 50% or more. Some of the results follow.
# Target: Bcl-2-like protein 10 (Homo sapiens) (UniProt Q9HD36)
# Assay: Phenotype converters, Bcl-B/TR3 peptide binding displacement, primary biochemical FP (AID 1240);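 note: 0% = Bcl-B with tracer peptide and DMSO and 100% = tracer peptide lacking Bcl-B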
# Settings: GST-Bcl-B / FITC-TR3 peptide fluorescence polarization; stronger effect = higher value; compound at 3.75 mg/L
# Chain of UniProt Q9HD36 (Q9HD36 whole entry, looked up): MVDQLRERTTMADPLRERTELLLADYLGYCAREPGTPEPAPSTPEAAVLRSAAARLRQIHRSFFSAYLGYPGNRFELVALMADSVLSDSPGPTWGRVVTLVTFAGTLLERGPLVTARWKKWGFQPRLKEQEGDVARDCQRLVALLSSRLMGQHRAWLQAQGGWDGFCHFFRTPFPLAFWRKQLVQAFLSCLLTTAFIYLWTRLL
row,SMILES,displacement
1,O=C(Nc1ccc([N+](=O)[O-])cc1)C1CC(=O)N(c2ccc(Cl)cc2)C1 (stereo not drawn),14.3%
2,CCOc1cc(/C=N/NS(=O)(=O)c2ccc(OC)cc2)ccc1OCCN1CCOCC1,-5.7%
3,CCOc1cc(/C=N/Nc2nc3ccccc3s2)ccc1OCc1ccccc1,3.3%
4,CC(=O)NC(CCC(=O)OCc1ccccc1)C(=O)Nc1ccc(C)cc1 (stereo not drawn),18.3%
5,CC(C)N1CCC(=NNC(=O)c2cccc([N+](=O)[O-])c2)CC1,-6.4%
6,O=C(Nc1ncn[nH]1)c1ccc(F)cc1,2.7%
7,COc1cc(/C=N/N2CCN(c3ccccc3OC)CC2)ccc1OC(C)=O,11.9%
8,COc1ccc(/C=C(/NC(=O)c2ccccc2Br)C(=O)NC(Cc2ccccc2)C(=O)O)c(OC)c1 (stereo not drawn),-6.3%
9,COC(=O)c1ccc(/C=C2/SC(=O)N(CNc3ccc(Br)cc3C)C2=O)cc1,-2.8%
10,CCN1C(=O)/C(=C\c2ccc(OC)c([N+](=O)[O-])c2)C(C(=O)OC)=C1C,-20.8%
11,CCOc1ccc(/C=C(\NC(=O)c2ccc(C)cc2)c2nc3ccccc3[nH]2)cc1,-7.4%
12,CCOC(=O)c1ccccc1NC(=O)c1sc(NC(=O)c2ccc3c(c2)OCO3)c(C(=O)OCC)c1C,-18.9%
13,COc1cc(NC(=O)COc2cccc3ccccc23)cc(OC)c1,4.1%
14,Cc1c(OCC(=O)O)ccc2c3c(c(=O)oc12)CCCC3,-9%
15,C=CCN1C(=O)/C(=C\c2cc(OC)cc(OC)c2)SC1=S,0.5%
16,O=C1NN(c2ccccc2)C(=O)/C1=C/c1ccc(-c2ccccc2)o1,3%
17,C/C(CCc1oc2c(Br)cc(Br)cc2c1-c1ccc(C)o1)=N\O,2.3%
18,O=Cc1cccc(OCc2ccc(F)cc2)c1,6.3%
19,CC1(C)C2CC3C(C)(O)C(c4ccccc4)P(=O)(Cc4ccccc4)C3(C)CC21 (stereo not drawn),8.3%
20,O=C(O)CCC(=O)Nc1nc(-c2cccc3ccccc23)cs1,12.7%
21,CCOc1cccc(C(=O)Nc2ccc(Br)cc2C(=O)O)c1,11.9%
22,Cc1cc(Nc2cccc(C(=O)O)c2)n2ncnc2n1,13.6%

row,SMILES,displacement
1,COc1ccc(C2CC(C(F)(F)F)n3nc(C(=O)Nc4cccc(O)c4)c(Cl)c3N2)cc1OC (stereo not drawn),1.6%
2,CC(C)C(=O)Nc1ccc(C(=O)Nc2ccccc2C(=O)O)cc1,13.8%
3,O=C1C2CC=C(Cl)CC2C(=O)N1CCc1c[nH]c2ccccc12 (stereo not drawn),-1.8%
4,Cc1c(CCNC(=O)c2ccccc2F)c2ccccc2n1Cc1ccccc1,4.4%
5,COC(=O)CNC(=O)CN(c1ccc(C)cc1C)S(=O)(=O)c1ccccc1,-9.8%
6,O=C(Nc1ccc2oc(-c3ccccc3)nc2c1)c1ccc(-c2ccc([N+](=O)[O-])cc2)o1,22.1%
7,Cc1ccnc(-n2c(=O)c3cc4c(=O)n(-c5cc(C)ccn5)c(=O)c4cc3c2=O)c1,-4.6%
8,CC(C)OC(=O)C(C(=O)C(F)(F)F)c1cc(NS(=O)(=O)c2ccc(F)cc2)ccc1O (stereo not drawn),4.7%
9,COc1cc(/C=C2\SC(=Nc3ccc(O)cc3)NC2=O)ccc1O,-47.5%
10,Cc1cc(/C=N\NC(=O)c2ccco2)c(C)n1-c1cccc(Cl)c1,-17.5%
11,COC(=O)C1=C(C)NC(=O)/C1=C\c1ccc(Br)cc1,-0.3%
12,Cc1ccccc1-n1c(O)c(C=Nc2ccccc2F)c(=O)[nH]c1=O,-4.7%
13,CCOc1ccc(C(=O)Nc2ccc(I)cc2Cl)cc1Cl,-9.9%
14,CCn1nnnc1-c1ccc(OC)c(S(=O)(=O)Nc2ccccc2OC)c1,11.2%
15,NC(=O)c1c(NC(=O)/C=C/c2ccccc2Cl)sc2c1CCCC2,41%
16,CCc1cccc(C)c1NC(=O)c1c(-c2ccccc2)noc1C,-2.1%
17,CCOc1ccc2nc(SCC)[nH]c2c1,-5.9%
18,COc1ccc(S(=O)(=O)N(CC(=O)N2CCCCCC2)c2cc(C)cc(C)c2)cc1OC,-9.7%
19,O=C1NN(c2ccc(F)cc2)C(=O)/C1=C\c1ccc(-c2cccc(C(=O)O)c2)o1,29.6%
20,Nc1nnnn1CC(=O)N/N=C/c1ccc(Cl)cc1,9.1%
21,CC1=C(C(=O)OCc2ccc3c(c2)OCO3)C(c2cccc([N+](=O)[O-])c2)NC(=O)N1 (stereo not drawn),-0.1%
22,COC(=O)c1c(NC(=O)c2ccc([N+](=O)[O-])c(C)c2)sc2c1CCCCCC2,-5.3%

row,SMILES,displacement
1,CCOc1ccc2nc(SCC(=O)NCCc3ccccc3)sc2c1,-6.4%
2,Cc1ccc2c(c1)C1(c3ccccc3)Nc3ccc(C)cc3C1(c1ccccc1)N2 (stereo not drawn),12.8%
3,Cc1cccc(C(=O)Nc2cc(C(N)=O)cc(C(N)=O)c2)c1,15.8%
4,CCOc1ccccc1NC(=O)/C=C/c1ccc(Cl)cc1,11.4%
5,Cc1noc(NS(=O)(=O)c2ccc(NC(=O)CCCOc3ccccc3)cc2)c1C,3.7%
6,CC(=O)Nc1nc2n(n1)C(=O)CC(c1ccccc1)=N2,-8.4%
7,COc1ccc(CN2CCN(C(=O)c3cccc(Cl)c3)CC2)c(OC)c1,-11.1%
8,CC(=O)NC(C(Cl)(Cl)Cl)S(=O)(=O)c1ccccc1 (stereo not drawn),3%
9,Cc1ccc(S(=O)(=O)Oc2ccc(Br)cc2/C=C2\SC(=S)NC2=O)cc1,-30.6%
10,CCc1ccc(/C=N/n2cnnc2)cc1,14.6%
11,O=C(Nc1ccc(NC(=O)c2ccc(Cl)cc2Cl)cc1)c1ccccc1F,-0.9%
12,Cc1ccc(NS(=O)(=O)c2ccc([N+](=O)[O-])cc2)cc1,15.1%
13,O=C(NCCCNc1ccc([N+](=O)[O-])cc1)c1cc2ccccc2o1,4.8%
14,CC(C)(C)c1ccc(/C=N/N=C2\NC(=O)C(CC(=O)O)S2)cc1 (stereo not drawn),8.5%
15,CCOc1ccc(S(=O)(=O)Nc2c(C)cc(C)cc2C)cc1,7.4%
16,CCOc1cc(C=O)ccc1OCC(N)=O,10.8%
17,CCN(CC)CCN1C(=O)C(O)=C(C(=O)/C=C/c2ccccc2)C1c1cccc(F)c1 (stereo not drawn),1.1%
18,COc1ccc(S(=O)(=O)Nc2cccc3ccccc23)cc1Br,-4.7%
19,CC(=O)Nc1cc(-c2ccc(Cl)cc2)nn1Cc1ccc(Cl)cc1,1.2%
20,Cc1ccc(S(=O)(=O)NCCNC(=O)Nc2cccnc2)cc1,14.6%
21,O=c1cc(-c2ccccc2)nc(N2CCOCC2)[nH]1,-1.5%
22,CCOC(=O)C1=NNC2C(=O)N(c3ccccc3C)C(=O)C12 (stereo not drawn),1.1%

row,SMILES,displacement
1,CC(Nc1ccc(Br)cc1)C(=O)N/N=C/c1ccc(O)cc1O (stereo not drawn),-18.1%
2,Cc1cccc(C)c1NC(=O)c1ccc([N+](=O)[O-])cc1Cl,4.7%
3,COc1cc(C=C2C(=O)NC(=O)NC2=O)cc(Cl)c1OC(C)C,7.5%
4,COc1ccc(C2/C(=C(/O)c3ccccc3)C(=O)C(=O)N2c2cccc(Br)c2)cc1 (stereo not drawn),-1.1%
5,Cc1ccc(C(=O)Nc2ccc(OCc3ccccc3)cc2)cc1[N+](=O)[O-],-1.1%
6,COC(=O)c1c(NC(=O)c2ccc(OC)cc2)sc2c1CCC2,29.6%
7,COC(=O)c1ccc(N/C=C\C(=O)c2ccc3c(c2)OCO3)cc1,23.7%
8,O=C(Nc1ccc(NC(=O)c2ccc(-c3ccc(Br)cc3)o2)cc1)c1ccco1,10.5%
9,Cc1c(C(=O)OC(C)C)sc(NC(=O)C(F)(F)F)c1C(=O)OC(C)C,0.1%
10,Cc1ccc(Sc2ccc(/C=c3\sc4nc5ccccc5n4c3=O)o2)cc1,86.8%
11,O=C(c1ccccc1Cl)N1CCc2ccccc2C1,17.7%
12,CCCCN(C(=S)SC)C1CCS(=O)(=O)C1 (stereo not drawn),3.2%
13,O=C(Nc1ccc(I)cc1Cl)c1ccc(Cl)cc1Cl,-9.7%
14,CN(C)c1ccc(CC2(CC(=O)c3ccccc3)C(=O)c3ccccc3C2=O)cc1,1.8%
15,O=C(Nc1ccc(S(=O)(=O)N2CCOCC2)cc1)c1cccs1,-6%
16,COC(=O)c1c(NC(=O)/C=C/C(=O)O)sc2c1CCC(C(C)(C)C)C2 (stereo not drawn),5.1%
17,Cc1cccc(N2C(=O)C3C4C=CC(C4=C4C5CC6CC(C5)CC4C6)C3C2=O)c1 (stereo not drawn),-9%
18,CCCOc1ccc(C2=NNC(=O)CC2)cc1,3.6%
19,NC(=O)COc1ccc(/C=N/NS(=O)(=O)c2ccccc2)cc1,0.2%
20,CCOC(=O)c1c(N)sc(C(=O)Nc2cccc(OC)c2)c1C,14.1%
21,O=C(COc1cc2oc(=O)c3c(c2cc1Cl)CCC3)c1ccc(Cl)cc1,3.8%
22,NNC(=O)C1C(=O)NCC1c1ccccc1 (stereo not drawn),1.8%

row,SMILES,displacement
1,O=C(NC(=S)Nc1cccc(NC(=O)c2ccccc2Cl)c1)c1ccco1,-1.3%
2,NNC(=O)c1cc2ccccc2cc1NS(=O)(=O)c1ccccc1,-22%
3,Cc1ccc(C(=O)N(c2c(C)n(C)n(-c3ccccc3)c2=O)C(C)C)cc1,7.5%
4,COc1ccc(Br)cc1CN1CCN(S(C)(=O)=O)CC1,8.3%
5,O=C1C=C(N2CCN(C(c3ccccc3)c3ccccc3)CC2)C2(CCCCC2)O1,12.2%
6,CCc1ccc(OCCSc2nc3ccccc3[nH]2)cc1,-3.3%
7,O=C(CSc1nnc(-c2cccs2)n1-c1ccccc1)c1ccc(F)cc1,0.7%
8,N/C(=N\N=C\c1ccc(O)c(O)c1)c1nonc1N,13.2%
9,C=CCNC(=O)C(=O)Nc1ccccc1C,1.9%
10,COC(=O)CCC(=O)Nc1cc(Cl)ccc1Cl,8.3%
11,COc1ccc(C(C2=C(O)CC(C)(C)CC2=O)C2=C(O)CC(C)(C)CC2=O)cc1CO,-1%
12,CC(C)c1ccc(N2C(=O)NC(=O)/C(=C/c3cc4c(cc3Cl)OCO4)C2=O)cc1,18.3%
13,COc1ccc2[nH]c(=O)c3c(c2c1)OC(C)(C)C=C3,13.5%
14,CCOc1cc(C(=O)Nc2nn[nH]n2)cc(OCC)c1OCC,-0.4%
15,CCCCOC(=O)c1cccc(NC(=O)c2cc3ccccc3oc2=O)c1,1.7%
16,O=C(O)c1ccc(NC(=O)c2cc3cc([N+](=O)[O-])ccc3oc2=O)cc1,12.5%
17,Cc1nc(-c2ccccc2)c2c(=O)cc[nH]c2n1,15.4%
18,Nc1nonc1/C(=N/O)N1CCN(c2ccc(C(F)(F)F)cc2[N+](=O)[O-])CC1,1.6%
19,O=C(C(c1ccccc1)c1ccccc1)N1CCN(C2CCN(Cc3ccccc3)CC2)CC1,-1%
20,CCOc1ccccc1NC(=O)Cc1ccc(Cl)cc1,-13.7%
